Experimental data published in the supplement of paper PMC11417369.
± gives the standard deviation of the averaged measurements. The list shows a part of the results.

system: PfAP2-G AP2 domain (GST-tagged); test: gcPBM binding intensity (ln(normalized median fluorescence intensity)); higher = stronger DNA binding
How it was run: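 DNA-binding domains from P. falciparum, fused to GST and produced in E. coli, were put on an Agilent 4 × 180k double-stranded probe array for 1 h in 1× PBS holding 1% milk, 0.2 mg/ml BSA, 0.5% salmon testes DNA and 0.03% Triton X-100. Probes were primer-extended, 36 bp long and drawn from intergenic genomic regions, with negative controls included. After Alexa488 anti-GST antibody detection and a 488 nm scan, binding intensity was set as the highest Masliner-normalised natural-log median intensity across replicate spots of either probe orientation.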

Row | Sequence | gcPBM binding intensity (ln)
1 | TATTAAAAGGTTAAAGCATGCATACATATATATGTT [TGCATGCA_site865] | 9.64 ± 0.16
2 | TTTTTGTTACCTATTGTGCACTTCATATAAATTAAA | 10.8 ± 0.54
3 | AATAATAAATAAAAATGTACACATACATTTCTATCC [XGTACX_site7057] | 11.3 ± 0.94
4 | GTAATACCCAAACACACACACATACCCATATATATA [CACACA_site5510] | 10.3 ± 0.26
5 | AGAAAGTAAAGCTGTTGTACTATTATATATATTTTA [XGTACX_site8090] | 11 ± 0.66
6 | TTTGTTTGATATATGTGTACATATATATATTATGCT [XGTACX_site3522] | 11.4 ± 0.69
7 | TTTCTTTTTAAATAATAATGTATAATAAAAAGTTCA [TGCATGCA_negctrl_site195] | 9.86 ± 0.4
8 | TATAATATGTATATCTGTACATATTTTAAATCTAAT [XGTACX_site2426] | 11 ± 0.94
9 | AAGTACAATTCATGTATGCACTTTATTATATTTTAT | 10.7 ± 0.37
10 | TGTTATGAGAACAGCACACAAGCTACATCATATATA [CACACA_site870] | 9.99 ± 0.18
11 | TATATATAAGATTGATGTACGATTTTGGTGTCTTAT [XGTACX_site2611] | 11.2 ± 0.82
12 | ATAATAATATATAGTACACACAAAAATGGAAGTAAA [CACACA_site3318] | 11.3 ± 0.73
13 | TATTATAGTATATATTGTACATATATATATTTTTTA [XGTACX_site8831] | 11 ± 0.68
14 | AAAGTATAAATAAATACACACATATTTATTTATATA [CACACA_site7375] | 9.96 ± 0.2
15 | TAAAAATATTATAATGCATGCAAAATATTGTTATAA [TGCATGCA_site244] | 9.53 ± 0.15
16 | ATAGTTTTTCCAATTCAAAAAAAAAAAAAAAAAAAA [CACACA_negctrl_site969] | 9.69 ± 0.41
17 | AACATATGATTAAACTGTACAAGAAAAATATAACAT [XGTACX_site4477] | 10.9 ± 0.42
18 | GAGAGGATCATCAATTCACACACATAAAAATGAAGT [CACACA_site9010] | 9.915 ± 0.007
19 | TTATATAATGACAAAAAAAAAAAAAAAAAAAAAAAA [CACACA_negctrl_site1467] | 9.75 ± 0.35
20 | GTATGATTACAAGAAAGTAGTCCACTTTAACAACAA [CACACA_negctrl_site1304] | 11.3 ± 0.75
21 | TAGATATTTTTGAAAAGTACAAATTTTTAAAAATTA [XGTACX_site4420] | 11 ± 0.87
22 | ATGTACATAAACCGCACACATATAAAAAAATAAATA [CACACA_site5571] | 11.1 ± 0.78

Row | Sequence | gcPBM binding intensity (ln)
23 | AGTCCATTTTATTATTGTACATATTAATTTATATCA [XGTACX_site672] | 11.1 ± 0.66
24 | ATTCAGAGTATATAAAAATTAATATATACATAATAT [CACACA_negctrl_site1782] | 9.73 ± 0.014
25 | TAATTTATCCTATAATGTACTTATAAAATATATCAT [XGTACX_site1460] | 11.1 ± 0.74
26 | AAAAAAAAAAAATACACACAAACACAAATTAAATAA [CACACA_site3809] | 9.895 ± 0.021
27 | ATTATAGAATATTGAAGTACAAAATTTAAAATAAGT [XGTACX_site1468] | 11.1 ± 0.67
28 | TAGGAAAATTACAAAAGTACTTGGCACATAATAATG [XGTACX_site6005] | 11.1 ± 0.46
29 | AATATTTTGTTATTTATTTAATCTAATATTACTATC [CACACA_negctrl_site4] | 9.695 ± 0.078
30 | ATATATATATAAATATGTACATATATACATATATAC [XGTACX_site2374] | 11.2 ± 0.82
31 | AAATAACATAATAAGGGTACATTAATTTCGATAATG [XGTACX_site835] | 11.2 ± 0.79
32 | ATCATATCCACCAAATGAATAATATAAAATAATATA [XGTACX_negctrl_site193] | 9.86 ± 0.22
33 | TATATATATATATATGCACACATTTATACAATTTTA [CACACA_site2986] | 10.2 ± 0.56
34 | AAATATCTACAAATATGTACATATTTTTTTTGGCTT [XGTACX_site6301] | 11.3 ± 0.73
35 | AGAAAAAAAAAAAAAAAACACACGGTACATCCAAAG [CACACA_site124] | 10.8 ± 0.41
36 | ATCAAATTATAATCATGTACAAATAAAAAAAAAAAA [XGTACX_site313] | 10.7 ± 0.65
37 | ATAGAAGCTGTTGACGAAGAAAAAAAAAAAAAAAAA [CACACA_negctrl_site110] | 9.82 ± 0.47
38 | CATATAAATAAACACACACACACATATATATATATA [CACACA_site5309] | 10.2 ± 0.4
39 | TAAAATTAAATGAAATCATTATTCATTTTTATTTTA [CACACA_negctrl_site1281] | 9.28 ± 0.24
40 | ATTCTTTTTTTTTTCTTATATTCTAATCACCACCTT [XGTACX_negctrl_site179] | 10.1 ± 0.49
41 | ATGAAATTATTATATAAACACACATTTATTTTATTT [CACACA_site8597] | 9.54 ± 0.22
42 | AATAGGTGCCTTTTTTCACACACATGTCAACTAAAT [CACACA_site8846] | 10.2 ± 0.21
43 | TTTGGTAAGCGTGTCGCATGTAGAACAAGTCTACAT [TGCATGCA_site577] | 10.2 ± 0.14
44 | ATTAAAATGGAGTATTAATATGATATATATATATAT [GTGCAC_negctrl_site509] | 10.3 ± 0.42

Row | Sequence | gcPBM binding intensity (ln)
45 | AGGAACATTTACGCCCCACACACCTACCAACAAAAA [CACACA_site3827] | 10.6 ± 0.4
46 | TAAATACAGACATACACACATACACCCACATATATA [CACACA_site547] | 10.3 ± 0.24
47 | TTACAACCATAAAATGCATGTAAATGACAAAAAAAA [TGCATGCA_site944] | 10 ± 0.17
48 | AATATATATATATATTGTACACACATTTATGCATAT [XGTACX_site6856] | 11.2 ± 0.61
49 | TATATATATATTTTTGGTACAGATATTTTCTTCTCT [XGTACX_site4432] | 10.6 ± 0.33
50 | ACATAATATACTATTGTGCACATATATATATATATA [GTGCAC_site9761] | 10.4 ± 0.24
51 | TTTTTATTTTTTTATTTCTTATCAAATAAAATATAT [XGTACX_negctrl_site537] | 9.76
52 | GTTAATTTAATTATATGTACGAAAAAATACGTTATA [XGTACX_site1306] | 11 ± 0.72
53 | TCTTAATATGGTAATACACACTAATATACTTTTGTT [CACACA_site4969] | 10.01 ± 0.049
54 | TTACAAAAAGGTAATTTACACACTGCATATAGGAAT [CACACA_site8956] | 10.2 ± 0.11
55 | TGCTCAAACTTTACAAATGAACGAATATAAAAAAAG [CACACA_negctrl_site541] | 10.1 ± 0.13
56 | AAATAATCATAAAATAAACACACATATATAAATATA [CACACA_site7981] | 9.775 ± 0.078
57 | ACCCTTCAATTTAATTGTACAAGAAAAAAAAAAAAA [XGTACX_site2927] | 10.9 ± 0.81
58 | ACAAAAAAATGAAAAGAAAAAGATATACCCCAATAT [CACACA_negctrl_site509] | 10.4 ± 0.18
59 | ACCGTGGGAGGACACACACACACACCCACATATATA [CACACA_site4339] | 11.5 ± 0.95
60 | ATTTTTGTTATTACATGTACCCATAATTATTATTAA [XGTACX_site3558] | 11.4 ± 0.81
61 | TATTTATATTCCTTTACACACTCCATCTTATATCCA [CACACA_site3604] | 9.99 ± 0.11
62 | AACAATTATTTGTCGACACACGTATATGTTATTTAG [CACACA_site5046] | 10.3 ± 0.049
63 | TATATATTAATATTTACACACATGCGCACCCATAAA [CACACA_site2410] | 10.7 ± 0.54
64 | ATATCCATAATAAAAACATGCAACAGAAAAAAAAAA [TGCATGCA_site497] | 9.82 ± 0.028
65 | AAGAGAAATATATATTGTACAATAATTTTATTTGGT [XGTACX_site7642] | 10.9 ± 0.36
66 | TTCCAAAAAATTATTACACACATATGAGCACATATA [CACACA_site4543] | 10.1 ± 0.18

Row | Sequence | gcPBM binding intensity (ln)
67 | TAATATACATATATATGTACATATATATATATATAT [XGTACX_site2684] | 11.1 ± 0.76
68 | TATTAATTAAAAAAATGTACATAATTATAAATTTTT [XGTACX_site7994] | 11.1 ± 0.68
69 | TACGGTTGTTTATTTTGTACGTAAAAAATATATTAT [XGTACX_site8393] | 11.5 ± 0.82
70 | ATATAAATAAATACAACACACATGTCATATCTAAAT [CACACA_site7533] | 9.855 ± 0.078
71 | TATATACATAAAATTTGTACATATATATATATATAT [XGTACX_site3214] | 10.7 ± 0.44
72 | AAAAAAAAAAAATGAGCACACATAAATAAAAACAAA [CACACA_site8447] | 10.2 ± 0.12
73 | TTAAAAAATTATTGTAGTACATAGGAAATGAAAAAA [XGTACX_site155] | 11.6 ± 1
74 | TAAATTAAATATTATAAACACACATATATATTATTT [CACACA_site8189] | 9.61 ± 0.2
75 | AAATTACATACACGCGCACACACAAAAAAAAAAAAA [CACACA_site1335] | 10.6 ± 0.68
76 | ATATTATTCTTATATTCACACAGTTTATATTTCCGT [CACACA_site5653] | 9.88 ± 0.19
77 | GTATATATATTTCTTTAATAATTAAATTATAAATAT [CACACA_negctrl_site640] | 9.8 ± 0.15
78 | TGGCAAAATAGGCACACACACATATACATATATATT [CACACA_site1059] | 10.2 ± 0.19
79 | TATATAATTAAAATAACACACATATATAAAAATATA [CACACA_site2990] | 9.72 ± 0.24
80 | ATATTATAGTATATAACACACATTTTTCATAACACT [CACACA_site6331] | 9.89 ± 0.13
81 | ATAATATATAAACACACACACATATATAAATACATT [CACACA_site4466] | 9.895 ± 0.007
82 | CATGCCGTTAAATTATGTACTTATTATTTTAATATG [XGTACX_site4209] | 11.3 ± 1
83 | AATATATAAACACGTACACACACATATATGTATATA [CACACA_site9168] | 11.6 ± 1
84 | AATTTAAATATTTGTTGTACGTATTTATATATTCTT [XGTACX_site3623] | 11.6 ± 0.88
85 | TATTATATCTTATATGTATATTCCCACAAATTATAT [GTGCAC_negctrl_site362] | 10.01 ± 0.099
86 | TCACATATTATCTTTACACACTATAAATAAGTTTTA [CACACA_site7335] | 9.97 ± 0.028
87 | TTGATATTTTTTTTATGTACACATGTTCATATTTTT [XGTACX_site8095] | 11.5 ± 0.79
88 | ATTTAAAAAAGAAAGGTGCATTTCAATAATGTAAAA [GTGCAC_site9585] | 10 ± 0.13
